# Experimental data reported in ChEMBL document CHEMBL4888484, “Replenishing the malaria drug discovery pipeline: Screening and hit evaluation of the MMV Hit Generation Library 1 (HGL1) against asexual blood stage Plasmodium falciparum ,using a nano luciferase reporter read-out” (2022).
# The whole screen tested about 150,000 compounds, of which about 540 (0.36%) showed an effect of 50% or more. The list shows a part of the results.
# Tested on: Plasmodium falciparum
# Experiment: Primary screen in NF54 nanoGlo assay, in single point, at 2uM, 72h; a lower Z score goes with more inhibition
# Type: functional, Erythrocyte
# Conditions: timepoint 72 hour
Compound,% Inhibition,Z score
COc1ccc2nc3ccccc3nc2c1NC(=O)c1ccccc1Br,-3%,0.3
CCc1noc(C)c1COc1ccccc1-c1nnc[nH]1,-3%,0.44
CNS(=O)(=O)CCn1ccnc1-c1ccc(-c2ccccc2)s1,-2%,0.32
COc1cccc(C(=O)/N=C(\NCc2ccc3c(c2)OCO3)OCC(C)C)c1,2%,-0.25
COCCN1CC2(CCC1=O)CCN(c1cc(C3CC3)ncn1)CC2,-16%,1.69
Cc1ccc(Cl)c(Oc2cc(N3CCN(S(=O)(=O)c4ccc(Cl)cc4)[C@@H](C)C3)ncn2)c1,-13%,1.53
CCOC1CC(NC(=O)CCc2ccncc2)C12CCCC2 (stereo not given),-12%,1.25
Cn1ncc2[nH]c(-c3ccc4ccccc4c3)nc21,-15%,1.71
COC(=O)n1cnc2ncn(C)c(=O)c21,-33%,3.87
CCOC(=O)N1CCN(C(=O)c2nn[nH]c2Nc2ccccc2F)CC1,-6%,0.77
COc1cccc2c1OC[C@@H](C(=O)N1CCC(Cc3noc(C)n3)CC1)C2,-6%,1.14
O=C(CN1C(=O)[C@H]2CCCC2=Nc2ccccc21)Nc1ccc(Br)cc1F,1%,-0.16
Cc1ccc2ccc3cc(C(=O)NCCN4CCN(c5cccc(Cl)c5)CC4)[nH]c3c2n1,-8%,1.42
COc1cc(-c2nc(C(=O)NCC(C)C)cs2)ccc1OCc1ccccc1Cl,-6%,0.99
O=C(Cn1ccc2ccc(N3CCOCC3)nc21)NCc1ccc2c(c1)OCO2,-10%,1.63
Cc1ccc(C(CNC(=O)CCNC(=O)C2CC2C)N2CCCC2)o1 (stereo not given),-7%,1.1
CCN(CC)c1nc(C)cc(C(=O)NCCO)n1,-6%,0.96
COCCS(=O)(=O)Nc1ccc(O)cc1Br,-2%,0.46
Cc1nc(OCCOCC(F)F)c(Br)cc1C#N,-5%,0.92
CC(C)(C)N1Cc2cc(Br)ccc2OCC1=O,-9%,0.98
Cc1ccc(S(=O)(=O)N(CC#N)CC#N)cc1,2%,-0.25
COCCN1CCCC[C@H](CC(=O)Nc2ccc(Cl)cc2)C1=O,-14%,2.71
O=C(Cc1nc2ccccc2[nH]1)N[C@H]1COCC[C@@H]1Oc1ccccn1,-2%,0.3
O=C(NCCc1ccncc1)c1ccc(-c2cn(-c3ccccc3)cn2)cc1,6%,-0.73
O=C(NCC#CCN1CCCCCC1)c1ccc2c(c1)OCO2,-5%,0.94
COc1ccc(N2CCN(c3c4c(nc5nncn35)CCC4)CC2)cc1,6%,-0.72
CCN(Cc1ccoc1)c1nc(C)ns1,-9%,1.34
COCCc1ccnc(NC(=O)N2CCN(C)CCN(C)CC2)c1,-1%,0.14

Compound,% Inhibition,Z score
Cc1cc(F)ccc1[C@@H]1CCCN1S(=O)(=O)c1cnn(C)c1,-8%,1.69
O=C(CCc1cnccn1)N[C@H]1CCOC[C@@H]1Oc1ccccn1,10%,-1.17
O=C(NCC1CCN(c2ccccn2)CC1)c1ccc(Cl)s1,-12%,1.85
CCN(C)C(=O)CN1CCC[C@H](C(=O)c2ccc(Oc3ccccc3)cc2)C1,-5%,0.44
Clc1cc(Cl)cc(-c2ccc(CNCc3ccco3)o2)c1,-3%,0.4
CCO[C@H](C(=O)NCc1nnc2c(Cl)cc(C(F)(F)F)cn12)C1CC1,-5%,0.73
CN(C)C(=O)N1CCN(c2ncnc(-c3ccccc3)n2)CC1,7%,-0.67
CCOCC(=O)Nc1cc2c(cc1F)N(C)S(=O)(=O)N2C,-11%,1.66
CC1CCC(O)(CS(=O)(=O)Cc2nccs2)CC1 (stereo not given),-8%,1.13
O=C(c1ccc(F)cn1)N(c1ccccn1)C1CCCC1,-6%,1.08
CCN1CCN(Cc2snnc2C(C)C)[C@H]2CS(=O)(=O)C[C@H]21,-9%,1.14
Cc1nc2c(-c3ccncc3)nsc2c(=O)n1CC(=O)Nc1ccc(Cl)cc1,-3%,0.4
OC1CC2CCC(C1)N2c1nnc(C2CC2)o1 (stereo not given),2%,-0.24
CCN(C[C@H]1CCN(C(=O)Nc2ccc(C)cn2)C1)CC(F)(F)F,-12%,2.15
CCCNC(=O)N(CC(=O)N1CCN(c2ccc(-c3ccc(OC)cc3OC)nn2)CC1)CC1CC1,-14%,1.35
OCC1(NCc2cnc([C@@H]3CCCO3)s2)CCC1,-10%,1.87
CC(=O)N1CCC(N2CCC(Cc3ccc(COc4ccncc4)cc3)CC2)CC1,-17%,3.21
Cc1nnc2ccc(N[C@H]3[C@H](c4ccccc4)C3(C)C)nn12,-14%,1.88
O=C1NC2(CCCC2)C(=O)N1Cc1nnc(-c2ccc(Cl)cc2)o1,-35%,4.05
C[C@@H](CCn1cccn1)N1CCC(Oc2cc(Cl)ccc2C(=O)N2CCCCC2)CC1,-6%,1.24
CC[C@@H](CO)NC(=O)NC(c1ccc(F)c(F)c1)C(C)C (stereo not given in full),7%,-0.95
CCCN1C[C@@H](Nc2nnc(C(C)(C)C)o2)CC1=O,-14%,1.83
Cc1ncccc1OCc1ncnn1C(C)(C)C,12%,-1.35
COC(=O)N1CC[C@H](NCc2cnc(-c3cccs3)s2)C1,-2%,0.24
COc1ccc(Oc2c(CN(CC3CC3)C(C)=O)c(C)nn2-c2cccc(Cl)c2)cc1,16%,-1.92
CCn1nc(C)c(CN2CCC(OCc3ccc(F)cc3)CC2)c1C,-7%,0.65
Cn1cnn(-c2ccc(NCC#Cc3ccc(C(F)(F)F)cc3)cc2)c1=O,-6%,0.66
